Measured values as given in PubChem BioAssay AID588591 (National Center for Advancing Translational Sciences (NCATS), 2011).
Values joined by “and” are separate entries in the source; they are usually repeats but may differ in a detail not shown here. Equal entries are not always repeated. The whole screen tested about 390,000 compounds, of which about 4,700 (1.2%) were called active. Inconclusive results, whose numbers are uncertain, are shown with a selection of clear calls. The call rests on the fitted dose curve; in most records, active means well fitted inhibition curve with a large enough effect; inconclusive means small, poorly fitted or top-dose-only effect, or another doubt; inactive means no such curve, though single readings can be large or run the other way. Where the call is inconclusive, the potency comes from a doubtful curve fit.

The compounds below were run against DNA polymerase eta (Homo sapiens) (UniProt Q9Y253) (assay: qHTS for Inhibitors of Polymerase Eta). Details: recombinant Pol eta, fluorescent DNA replication assay; series mostly up to 114 µM; activity change, negative = inhibition: at the top concentration.
How it was run: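 Pol eta (10 nM) was preincubated with compounds for 15 min at room temperature, after which fluorescent replication substrate (50 nM final) was added to start the reaction. Fluorescence was read kinetically at 0 and 10 min.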
On the % scale 0 is the no-effect control and ±100 the full control effect; potency means the concentration at half of the fitted maximal effect; tags describe the fitted curve by direction and shape.

Chain of UniProt Q9Y253 (Q9Y253 whole entry, looked up): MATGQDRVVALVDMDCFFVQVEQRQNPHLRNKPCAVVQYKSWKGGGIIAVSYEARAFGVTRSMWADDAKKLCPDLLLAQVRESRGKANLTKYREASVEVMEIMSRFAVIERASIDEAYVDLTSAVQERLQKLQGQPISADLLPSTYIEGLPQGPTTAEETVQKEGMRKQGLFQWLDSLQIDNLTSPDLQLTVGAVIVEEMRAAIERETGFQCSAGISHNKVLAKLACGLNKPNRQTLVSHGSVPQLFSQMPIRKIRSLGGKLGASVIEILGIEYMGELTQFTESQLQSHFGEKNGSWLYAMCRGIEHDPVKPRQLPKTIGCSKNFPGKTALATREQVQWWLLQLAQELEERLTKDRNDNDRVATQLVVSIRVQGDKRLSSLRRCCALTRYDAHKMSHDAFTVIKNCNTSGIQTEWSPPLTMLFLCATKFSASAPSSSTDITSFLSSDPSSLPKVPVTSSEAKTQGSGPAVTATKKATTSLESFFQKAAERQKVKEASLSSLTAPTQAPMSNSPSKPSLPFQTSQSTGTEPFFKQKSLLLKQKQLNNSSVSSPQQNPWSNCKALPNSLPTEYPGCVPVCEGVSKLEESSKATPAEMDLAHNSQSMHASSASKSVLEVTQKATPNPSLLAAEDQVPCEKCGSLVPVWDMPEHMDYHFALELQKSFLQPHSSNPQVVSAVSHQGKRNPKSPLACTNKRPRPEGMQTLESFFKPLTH

Structure (SMILES)	Potency	activity change, negative = inhibition
Cc1ccc(NS(=O)(=O)c2ccc(NC(=O)C3CCCO3)cc2)cc1 (stereo not given)	inconclusive: 39.8 µM [inhibitor, partial curve, poor fit]	–
Fc1ccc(-c2cc(-c3nc(-c4cccc(Cl)c4)no3)[nH]n2)cc1	–	inactive: 0%
Cc1cccn2c(=O)c3cc(C(=O)N4CCN(C(=O)c5ccco5)CC4)n(C)c3nc12	inconclusive: 0.316 µM [inhibitor, full curve, poor fit]	–
CCc1ccc(NS(=O)(=O)c2ccc3[nH]cc(C(=O)NC4CCCC4)c(=O)c3c2)cc1	inconclusive: 89.1 µM [inhibitor, single point]	–
Cc1cc(NC(=O)Cc2csc(-c3ccccc3)n2)ccc1Br	inconclusive: 79.4 µM [inhibitor, partial curve, poor fit]	–
COc1ccc(C(=O)Nc2cccc(/C=C/c3nc4ccccc4c(=O)[nH]3)c2)cc1	inconclusive: 39.8 µM [inhibitor, partial curve, poor fit]	–
Cc1cc(=O)[nH]c(N/N=C/c2cccc(Br)c2)n1	–	inactive: -9.16%
Cc1cc(C)c2c(=O)c(C#N)coc2c1	active: 50.1 µM	–
CCOC(=O)C1=C(COC(=O)c2ccc([N+](=O)[O-])o2)NC(=O)NC1C (stereo not given)	inconclusive: 89.1 µM [inhibitor, partial curve, poor fit]	–
NC(=O)Cc1ccc(C(=O)CSc2nnc(-c3ccncc3)n2C2CC2)s1	active: 12.6 µM	–
N#Cc1c(NC(=O)/C=C/c2ccco2)sc2c1CCCC2	inconclusive: 14.1 µM [inhibitor, partial curve, poor fit]	–
O=C(c1ccco1)N1CCN(c2ncnc3sc4c(c23)CCC4)CC1	inconclusive: 31.6 µM [inhibitor, single point]	–
Cc1ccc(NC(=O)CNC(=O)c2sc3ccccc3c2Cl)nc1	inconclusive: 14.1 µM [inhibitor, full curve]	–
Cc1ccccc1OCC(=O)OCC(=O)Nc1ncc(Cl)c(C)c1Cl	active: 28.2 µM	–
O=C(NC(Cc1ccccc1)c1nc2ccccc2[nH]1)C1CC(=O)N(c2ccc3c(c2)OCCO3)C1 (stereo not given)	inconclusive: 39.8 µM [inhibitor, single point]	–
O=c1c2cc(O)c(O)cc2oc2cc(O)c(C3OC(CO)C(O)C(O)C3O)c(O)c12 (stereo not given)	active: 8.91 µM	–
Cc1cc(N2CCCCC2)nc2ccc(NC(=O)c3ccc(F)cc3)cc12	–	inactive: -6.92%
CC(=O)Nc1nonc1-c1nnc(SCC(=O)Nc2cc(C)ccc2C)n1-c1ccccc1	–	inactive: -12.4%
O=C(c1ccccc1)N1CCC(c2nc(-c3ccc(S(=O)(=O)N4CCOCC4)cc3)no2)CC1	inconclusive: 79.4 µM [inhibitor, partial curve, poor fit]	–
COc1cccc(/C=N/Nc2nc(Nc3ccc([N+](=O)[O-])cc3)nc(N3CCCC3)n2)c1O	active: 22.4 µM	–
O=C1c2ccccc2C(=O)c2c1ccc(O)c2O	inconclusive: 56.2 µM [inhibitor, partial curve, poor fit]	–
c1cnc2ccc3ncccc3c2c1	inconclusive: 14.1 µM [inhibitor, full curve, poor fit]	–

Structure (SMILES)	Potency	activity change, negative = inhibition
O=c1c2ccccc2n(Cc2cccc(Cl)c2)c(=O)n1CCc1ccccc1	inconclusive: 89.1 µM [inhibitor, partial curve, poor fit]	–
CCOC(=O)C[C@H]1c2ccc(C(F)(F)F)cc2S(=O)(=O)N1c1ccccc1	–	inactive: -11%
CCOC(=O)c1c(NC(=O)COc2ncnc3ccccc23)sc(C(C)=O)c1C	inconclusive: 35.5 µM [inhibitor, partial curve, poor fit]	–
O=C1NC(=S)S/C1=C\c1ccc(SCc2ccco2)o1	active: 1.58 µM	–
O=C(NC(=S)NCc1ccccc1)c1ccccc1	–	inactive: -21.8%
Cc1ccc(/C=N/N2CCCCC2)o1	–	inactive: -8.69%
Cc1c(N=C2C=CC(=O)c3ccccc32)c(=O)n(-c2ccccc2)n1C	active: 44.7 µM	–
CC(=O)N[C@@H](Cc1c[nH]c2ccccc12)C(=O)OCC(=O)NCc1ccc2c(c1)OCO2	inconclusive: 100 µM [inhibitor, partial curve, poor fit]	–
COc1cc2c(cc1OC)-c1cc(Nc3ccc4c(c3)OCCO4)nc(=O)n1CC2	inconclusive: 15.8 µM [inhibitor, partial curve, poor fit]	–
OC(c1cccc(OCc2ccccc2)c1)c1nnc(-c2ccccc2)o1 (stereo not given)	inconclusive: 79.4 µM [inhibitor, partial curve, poor fit]	–
COC(=O)Cc1cc(C)cc2c(=O)cc(-c3ccoc3)oc12	active: 50.1 µM	–
Cc1nc(-c2cccc(NC(=O)C(C)Oc3ccccc3)c2)cs1 (stereo not given)	active: 28.2 µM	–
CCC(C(=O)Nc1ccc(C(C)C)cc1)n1nc(C)n2c(cc3cc(C)ccc32)c1=O (stereo not given)	inconclusive: 79.4 µM [inhibitor, partial curve, poor fit]	–
COc1cc(/C=N/Nc2nc3ccccc3[nH]2)cc(OC)c1O	inconclusive: 50.1 µM [inhibitor, partial curve, poor fit]	–
O=C(CN1C(=O)NC2(CCCC2)C1=O)Nc1nc2c(F)cc(F)cc2s1	inconclusive: 35.5 µM [inhibitor, partial curve, poor fit]	–
Cc1ccc(S(=O)(=O)CCC(=O)NCc2ccccc2)cc1	–	inactive: -17.6%
CCOC(=O)c1sc2nc3c(SCC(=O)O)cc(C(=O)c4ccccc4O)cn3c(=O)c2c1C	inconclusive: 44.7 µM [inhibitor, full curve, poor fit]	–
O=C(O)c1ccc(N(c2ccccc2)c2ccccc2)cc1	–	inactive: -10.4%
COc1ccc(C2NC(=O)NC(C)=C2C(=O)Nc2cc(C)ccc2C)cc1OC (stereo not given)	inconclusive: 39.8 µM [inhibitor, partial curve, poor fit]	–
N#Cc1c(-c2ccco2)cc(-c2ccc(F)cc2)nc1N	inconclusive: 35.5 µM [inhibitor, single point]	–
COC(=O)c1ccc(CS(=O)(=O)c2ccc(C)cc2)o1	inconclusive: 56.2 µM [inhibitor, partial curve, poor fit]	–
O=C(c1ccc(Cl)cc1)N1C2C=CC(C2)C1(C(F)(F)F)C(F)(F)F (stereo not given)	inconclusive: 35.5 µM [inhibitor, partial curve, poor fit]	–

Structure (SMILES)	Potency	activity change, negative = inhibition
Cc1cc[n+](-c2[nH]c(=O)sc2/C=N/N=C(\[O-])c2ccccc2)cc1	inconclusive: 79.4 µM [inhibitor, partial curve]	–
COc1ccccc1/C=C/C=C1N=C(/C=C/c2ccc(Cl)cc2)OC/1=O	–	inactive: -23.5%
COC(=O)c1cc2sccc2n1CC(=O)Nc1ccc(C)cc1C	–	inactive: -3.92%
O=[N+]([O-])c1ccc(Cl)c(-c2ccc(/C=N/n3cnnc3)o2)c1	inconclusive: 56.2 µM [inhibitor, partial curve, poor fit]	–
CC(=O)Nc1cc(NC(C)=O)cc(C(=O)OCC(=O)c2ccc3c(c2)OCO3)c1	inconclusive: 15.8 µM [inhibitor, full curve, poor fit]	–
CN1C[C@@H]2C(c3ccc(C(F)(F)F)cc3)C3(c4cccnc4)CC2(C3)[C@H]1c1ccccc1 (stereo not given in full)	inconclusive: 79.4 µM [inhibitor, partial curve, poor fit]	–
COc1ccc(CN(C)C(=O)c2cc(-c3ccccc3)nc3ccc(C)cc23)c(OC)c1OC	inconclusive: 79.4 µM [inhibitor, partial curve, poor fit]	–
CC(=O)N1c2ccc(S(=O)(=O)N3CCCC3)cc2CC1C(=O)NCc1ccc(OC(C)C)cc1 (stereo not given)	inconclusive: 79.4 µM [inhibitor, partial curve, poor fit]	–
O=C(NCc1ccc(Cl)cc1)c1ccc2c(c1)NC(=O)C(CS(=O)(=O)Cc1ccc(F)cc1Cl)N2 (stereo not given)	inconclusive: 89.1 µM [inhibitor, partial curve, poor fit]	–
COc1cc(/C=C2/C(=O)NN(c3ccc(Cl)c(Cl)c3)C2=O)cc([N+](=O)[O-])c1O	active: 20 µM	–
COc1ccc(Nc2nnc(-c3ccc(C)c(S(=O)(=O)NCc4nc5ccccc5[nH]4)c3)c3ccccc23)cc1	–	inactive: -9.13%
N=C1S/C(=C\c2ccc(O)cc2)C(=O)N1c1ccc(F)cc1	inconclusive: 79.4 µM [inhibitor, partial curve]	–
O=C(O)CCN1CCc2ccccc21	active: 17.8 µM	–
CCOc1cc(/C=N/Nc2ccc(C(=O)O)cc2)ccc1OC(=O)c1ccccc1C	inconclusive: 89.1 µM [inhibitor, single point]	–
CC(=O)[C@]1(O)Cc2c(O)c3c(c(O)c2[C@@H](O[C@H]2C[C@H](N)[C@H](O)[C@H](C)O2)C1)C(=O)c1ccccc1C3=O	active: 50.1 µM and active: 14.1 µM	–
CN(C)CCCN(C(=O)c1ccc(S(=O)(=O)N2CCCCCC2)cc1)c1nc2c(F)cc(F)cc2s1	inconclusive: 79.4 µM [inhibitor, partial curve, poor fit]	–
O=C(c1ccc(Cl)cc1)c1oc2ccccc2c1CS(=O)c1ccc(Cl)cc1 (stereo not given)	–	inactive: -6.07%
CCCCN1CCCc2cc(CN(CCCN3CCOCC3)C(=O)Nc3ccc(CC)cc3)ccc21	–	inactive: -19.9%
CC12CC(NC(=O)N1c1cccc(C(=O)N3CCN(c4ccccc4)CC3)c1)c1ccccc1O2 (stereo not given)	–	inactive: 5.48%
CCCCCC(=O)N1C[C@H](n2cc(-c3ccc(F)cc3)nn2)[C@@H](O)C[C@@H]1c1ccc(C)cc1	inconclusive: 39.8 µM [inhibitor, partial curve, poor fit]	–
CC(=O)c1cc(C(=O)N2CCc3c([nH]c4ccccc34)C2C2CCCCC2)[nH]n1 (stereo not given)	inconclusive: 56.2 µM [inhibitor, partial curve, poor fit]	–
